# Reference: publication PMC4336329 (PLoS ONE, 2015)
# Out of some 310,000 compounds screened, about 2,200 (0.71%) showed an effect of 50% or more. The effect is printed as a negative number. The list shows a part of the results.
# Target: human ether-à-go-go-related gene (hERG) potassium channel (human, UniProt Q12809)
# Test: primary screen, population patch clamp on CHO cells stably expressing hERG
# Sequence of human ether-à-go-go-related gene (hERG) potassium channel (Q12809 whole entry, looked up): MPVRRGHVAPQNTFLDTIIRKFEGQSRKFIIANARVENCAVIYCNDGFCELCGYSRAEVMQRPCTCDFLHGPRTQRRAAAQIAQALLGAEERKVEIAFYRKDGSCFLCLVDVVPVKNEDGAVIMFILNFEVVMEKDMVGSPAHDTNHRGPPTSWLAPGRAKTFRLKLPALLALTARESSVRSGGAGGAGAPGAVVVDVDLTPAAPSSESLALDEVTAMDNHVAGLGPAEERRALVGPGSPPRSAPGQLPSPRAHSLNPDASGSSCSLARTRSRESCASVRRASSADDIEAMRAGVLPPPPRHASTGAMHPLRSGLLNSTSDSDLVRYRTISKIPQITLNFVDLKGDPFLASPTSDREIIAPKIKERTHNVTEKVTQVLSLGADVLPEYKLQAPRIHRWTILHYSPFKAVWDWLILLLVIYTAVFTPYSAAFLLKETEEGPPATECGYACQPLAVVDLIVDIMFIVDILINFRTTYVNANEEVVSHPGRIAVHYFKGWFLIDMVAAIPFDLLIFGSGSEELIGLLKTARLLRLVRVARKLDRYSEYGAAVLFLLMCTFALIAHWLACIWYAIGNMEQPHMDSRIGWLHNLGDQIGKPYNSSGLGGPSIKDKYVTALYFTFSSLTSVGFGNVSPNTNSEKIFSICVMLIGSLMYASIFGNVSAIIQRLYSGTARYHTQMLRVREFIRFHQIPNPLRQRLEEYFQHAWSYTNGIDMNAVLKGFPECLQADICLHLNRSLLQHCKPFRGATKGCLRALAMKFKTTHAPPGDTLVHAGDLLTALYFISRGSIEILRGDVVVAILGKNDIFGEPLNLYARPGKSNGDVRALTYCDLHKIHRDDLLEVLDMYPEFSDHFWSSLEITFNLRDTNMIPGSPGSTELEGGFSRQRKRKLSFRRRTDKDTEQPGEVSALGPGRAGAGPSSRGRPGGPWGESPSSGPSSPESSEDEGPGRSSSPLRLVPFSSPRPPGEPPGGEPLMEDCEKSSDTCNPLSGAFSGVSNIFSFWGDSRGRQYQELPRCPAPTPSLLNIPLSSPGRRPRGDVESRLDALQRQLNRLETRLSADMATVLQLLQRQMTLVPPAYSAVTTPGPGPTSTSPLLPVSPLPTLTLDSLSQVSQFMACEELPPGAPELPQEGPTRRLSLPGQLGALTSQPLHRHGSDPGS
row,Compound,"hERG current change (%, negative = inhibition) at 1uM [%]"
1,CC(C)c1nc(CNC(=O)CCc2nnc(-c3ccsc3)o2)cs1,0.865
2,Cc1c(C2=CCN(S(=O)(=O)c3ccc(Br)cc3)CC2)c2ccccc2n1C,11.9
3,CC(C)(C)Nc1nc(Oc2ccc(=O)[nH]n2)nc(N2CCOCC2)n1,7.22
4,COC(=O)Cn1cc(C#N)c2ccccc21,-0.17
5,CC1CN(C(=O)C2(C)CC2(Cl)Cl)CC(C)O1 (stereo not shown),-0.814
6,CCOc1cccc(-c2c(C(=O)N/N=C/c3ccsc3)nnn2-c2nonc2N)c1,11.5
7,COc1cc(NC(=O)c2cncc(-c3ccc(C#N)cc3)c2)cc(C(=O)Nc2cccc(C(F)(F)F)c2)c1,7.28
8,O=C(CN1CCCC1=O)NC1CCCc2c1cnn2-c1cc(F)cc(F)c1 (stereo not shown),23.4
9,Cc1ccccc1NC(=O)Cc1nc(COC(=O)c2ccccn2)cs1,-4.6
10,COCCN(CC(=O)Nc1cccc(C)c1C)C(=O)Cc1sc(C)nc1-c1ccc(F)cc1,13.3
11,Cc1noc(C)c1S(=O)(=O)N1CCC(C(=O)N2CCN(c3ccc(F)cc3)CC2)CC1,-8.56
12,COCCn1c(NC(=S)NC(=O)C23CC4CC(CC(C4)C2)C3)cc(=O)[nH]c1=O,8.98
13,COc1ccc(CN2CCNC(=O)C2CC(=O)N(C)Cc2ccon2)cc1OC (stereo not shown),4.57
14,Cc1ccc(C(=O)C(C)OC(=O)CN2C(=O)NC3(CCCC3)C2=O)cc1 (stereo not shown),16
15,Cc1ccc(N(C(=O)c2csnn2)C(C(=O)NC(C)(C)C)c2cccnc2)cc1C (stereo not shown),5.96
16,COc1ccc(-c2c(C#Cc3ccsc3)c3cc(-c4ccc5[nH]ccc5c4)ccc3n2C)cc1,14.9
17,COc1cc2c(cc1OC)CN(C(=O)c1cccc(S(=O)(=O)N(C)C)c1)CC2,3.68
18,Cc1ccc(C)c(C(C)NC(=S)NC2CCCCC2)c1 (stereo not shown),6.88
19,C=CCN(CC=C)C(=O)c1ccc2nc(Cc3ccc(OC)c(OC)c3)oc2c1,15.1
20,COc1ccc(N2CCN(C(=O)COC(=O)CCS(=O)(=O)c3ccc(C)cc3)CC2)cc1,5.98
21,COC(=O)Cc1ccc(O)c(N)c1,11.4
22,Cc1ccnc(NC(=O)Nc2ccc3c(c2)OCO3)c1,16.4

row,Compound,"hERG current change (%, negative = inhibition) at 1uM [%]"
1,COc1ccc(NC(=O)CN(c2ccc([N+](=O)[O-])cc2)S(=O)(=O)c2ccccc2)cc1,9.36
2,Cc1ccc(NC(=O)CC2SC(=O)NC2=O)cc1 (stereo not shown),8.89
3,CCCOc1ccc(-c2nn(-c3ccccc3)cc2/C=C2\SC(N)=NC2=O)cc1C,8.62
4,Cc1cccc(OCC(=O)Nc2nnc(S(=O)(=O)N3CCCCC3)s2)c1,2
5,COc1cccc(CNc2ccccn2)c1O,13.5
6,COc1cc(Br)cc(/C=N/c2ncn[nH]2)c1O,15.7
7,CS(=O)(=O)c1nc(S(=O)(=O)c2ccc(Cl)cc2)c(N2CCC3(CC2)OCCO3)s1,6.41
8,CCCCN1C(=O)C(O)(CC(=O)c2ccccc2OC)c2ccccc21 (stereo not shown),2.21
9,COc1ccccc1C(=O)n1nc(-c2ccccc2)nc1N,10.2
10,Cc1cc(NC2C3CC4CC(C3)CC2C4)n2nnnc2n1 (stereo not shown),12
11,CCOc1ccc(NC(=O)c2ccc(S(=O)(=O)N3CCOCC3)cc2)cc1,18.4
12,COc1cccc(-c2nc(CS(=O)(=O)CC(=O)NCC(C)c3ccccc3)c(C)o2)c1 (stereo not shown),-2.01
13,CCCCN(C)C1=Nc2cccc3cccc1c23,-54.9
14,NC(=O)CC(NC(=O)Cc1cccc2ccccc12)c1ccc(NCc2ccc(F)c(F)c2)c([N+](=O)[O-])c1 (stereo not shown),0.487
15,CC(C)CCNC(=O)C1CC(=O)N(C2CCCC2)C1 (stereo not shown),-3.15
16,CSc1n[nH]c(=O)n1-c1cccc(Cl)c1,6.51
17,CCOc1ccc(CNC(=O)CCc2cn(Cc3ccccc3)c3ccccc23)cc1,-1.72
18,CC1CCN(C(=O)c2cc(Cl)ccc2NC(=O)c2ccco2)CC1,19.5
19,CC(C)OC(=O)c1nn2c(C(F)(F)F)cc(-c3ccc(Br)o3)nc2c1Br,9.7
20,COc1cc(C(=O)NCC(c2cccs2)N(C)C)cc(Cl)c1OC(C)C (stereo not shown),4.47
21,O=C(O)c1ccc2c(c1)C(=O)N(c1ccc(OCc3ccccc3)cc1)C2=O,17.1
22,CS(=O)(=O)c1ccc2nc(NC(=O)Nc3ccccc3F)sc2c1,20.8

row,Compound,"hERG current change (%, negative = inhibition) at 1uM [%]"
1,N#C/C(=C\c1ccc(Cl)cc1)c1n[nH]c(Cn2cncn2)n1,9.99
2,O=C(CSc1ncccc1C(=O)O)NC1CCCCCCC1,7.77
3,CCN1CCN(c2ccc(S(=O)(=O)N3CCCCC3)cc2NC(=O)c2cccc(NC(C)=O)c2)CC1,-7.12
4,CCC(=O)N1c2ccc(S(=O)(=O)N3CCN(c4cc(C)ccc4C)CC3)cc2CC1C (stereo not shown),17.2
5,O=C(c1ccco1)N1CCN=C1SCc1ccccc1F,6.2
6,CC1CCCCN1CC(=O)Nc1ccc(N2CCCCCC2)cc1.O=C(O)C(=O)O (stereo not shown),6.37
7,NC(=O)CSc1nc2ccc([N+](=O)[O-])cc2[nH]1,15.5
8,Cc1ccc2c(c1)N(C(=O)CCC(=O)NC1CCC(C)CC1)CCO2 (stereo not shown),2.51
9,O=C(NNS(=O)(=O)c1ccccc1)C1CCN(S(=O)(=O)c2ccc(Cl)cc2)CC1,-5.78
10,COc1cnc(-c2ccccn2)[nH]c1=O,5.52
11,Cc1ccc(C(=O)N2CCN(c3ccc([N+](=O)[O-])cc3)CC2)o1,-79
12,O=C(NNC(=S)Nc1ccc(F)cc1)c1ccccc1OC(F)F,6.53
13,COc1ccc(-c2nc3ccccn3c2CN2CCN(c3ccccc3F)CC2)cc1,8.83
14,Cc1ccc(C(=O)CSc2nc(-c3ccccc3)cc(=O)[nH]2)cc1,-2.33
15,COc1c(C)cccc1C(=O)Nc1ccc(N2CCN(C(=O)c3ccccc3C)CC2)cc1,18.8
16,Cc1c(Cl)cccc1NC(=O)CCN1C(=O)C2CC=CCC2C1=O (stereo not shown),11.7
17,O=c1[nH]c(/C(Cl)=C/c2cccc(F)c2)nc2cc(C(F)(F)F)ccc12,14.1
18,Cc1cc(C)c(N(CC(=O)NC(C)(C)C)C(=O)CNC(=O)c2cccs2)c(C)c1,13.3
19,O=c1c2cccc3c2c(nn1CN1CCOCC1)-c1ccccc1-3,-15.3
20,COc1ccc(OC)c(NC=C2C(=O)OC3(CCCCC3)OC2=O)c1,-4.88
21,CC1CN(C)CCC1OC(=O)c1ccccc1.Cl (stereo not shown),3.72
22,COc1ccccc1C1N(c2ccc(F)cc2)C(=O)C2CCCN21 (stereo not shown),13.3

row,Compound,"hERG current change (%, negative = inhibition) at 1uM [%]"
1,CCOC(=O)c1cc(C(=O)NN)c(=O)[nH]c1C,17.5
2,N#Cc1ccc(-c2cccnc2)nc1SCC(N)=O,7.63
3,O=C1C=C(c2ccc(-c3ccccc3)c(F)c2)C[C@@H](c2ccc(F)cc2)C1,6.88
4,CN(CC(=O)NCCc1ccc(S(N)(=O)=O)cc1)S(=O)(=O)/C=C/c1ccccc1,6.03
5,Cl.O=[N+]([O-])c1ccc(COc2cccc(CNc3ccc(F)cc3)c2)cc1,-13
6,COc1ccccc1NC(=O)Nn1cnnc1,12.9
7,Cc1ccc(NC(=S)N2CCN(c3ncccn3)CC2)c(C)c1,1.62
8,O=S(=O)(c1ccccc1)N1CCN(c2cccc(Cl)c2)CC1,9.4
9,O=C(O)c1cccnc1SC1CC(=O)N(Cc2ccccc2)C1=O (stereo not shown),1.23
10,O=C(Nc1ccc(O)c2c(=O)cc(-c3cccc(Cl)c3)oc12)c1ccc(F)cc1,4.42
11,Cc1oc2c(CN3CCOCC3)c(O)ccc2c(=O)c1-c1ccc(Cl)cc1,3.22
12,Cc1ccccc1C(=O)NCc1nnc(SCC(=O)N2c3ccccc3Sc3ccccc32)n1C,8.07
13,COc1ccc(NC(=O)c2ccc3c(=O)n(CC4CCCO4)c(=S)[nH]c3c2)c(OC)c1 (stereo not shown),17.8
14,CC(C)Oc1ccc(C(=O)NC2CCN(Cc3ccccc3)CC2)cc1,-21
15,CCOC(=O)c1c(N)sc2c1CCS(=O)(=O)C2,11.2
16,CCC(OC(=O)C(CC(C)C)NC(=O)c1ccccc1)C(=O)Nc1nnc(C)s1 (stereo not shown),9.74
17,N#CC1(c2ccc(NC(=O)c3ccccc3F)cc2)CCCC1,12.6
18,O=C(CCN1C(=O)/C(=C\c2cccs2)SC1=S)Nc1ccc(C(=O)O)cc1,11.3
19,c1ccc(CNc2nc(-c3ccccc3)nc3ccccc23)cc1,6.51
20,Cc1cccc(NC(=O)c2cc(Cl)ccc2[N+](=O)[O-])c1,0.931
21,CC1CCc2c(sc(NC(=O)C(=O)NCc3ccco3)c2C#N)C1 (stereo not shown),-63.6
22,CCOC(=O)Cc1csc(NC(=O)CSc2nc(=O)[nH]c3c2CCC3)n1,7.8
